# The list shows a part of the results.
# B1: LngA (Escherichia coli) (protein)
# chain: MLSVYNRTQKFKAEARKKIAKYHELRKQRGMSLLEVIIVLGIIGTIAAGVVILAQRAFDSRAVTDLVTNTNTVRVRMKDAYQRDGKYPDFVDPLSLTANTIKTDTSGIPAAQLVQLGKITPDEVRNNISGDFIAIGGALTSNGAQVKKGFAIELNGLSQEQCRSILGQVGNNWEYVAIGTSASGSYAMTATGVDMSVAASTTVLRSLGNNGQTTLTADKILSTCTAQVNSITLGSR
# Assays:
# Assay in all cases: glycan array binding signal (z-score within array); higher = stronger binding
# Settings in all cases: glycan notation: IUPAC condensed, linker removed
# [1] = target: Neu5Ac(a2-3)Gal(b1-3)GalNAc
# How it was run: (§1)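 The binding signal is a Z-score computed within each array and averaged over linkers. Arrays of the same protein sequence at different concentrations or buffers were also averaged together. Data originate from 3228 arrays in the Consortium for Functional Glycomics database, kept only where the protein sequence was available.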
# [2] = target: Neu5Ac(a2-3)Gal(b1-3)GalNAc(b1-3)Gal(a1-4)Gal(b1-4)Glc
# How it was run: as §1
# [3] = target: Neu5Ac(a2-3)Gal(b1-3)GalNAc(b1-4)[Neu5Ac(a2-3)]Gal(b1-4)Glc
# How it was run: as §1
# [4] = target: Neu5Ac(a2-3)Gal(b1-3)GalNAc(b1-4)[Neu5Ac(a2-8)Neu5Ac(a2-3)]Gal(b1-4)Glc
# How it was run: as §1
# [5] = target: Neu5Ac(a2-3)Gal(b1-3)GalNAc6S
# How it was run: as §1
# [6] = target: Neu5Ac(a2-3)Gal(b1-3)GlcNAc
# How it was run: as §1
# [7] = target: Neu5Ac(a2-3)Gal(b1-3)GlcNAc(b1-2)Man
# How it was run: as §1
# [8] = target: Neu5Ac(a2-3)Gal(b1-3)GlcNAc(b1-2)Man(a1-3)[GlcNAc(b1-4)][Neu5Ac(a2-3)Gal(b1-3)GlcNAc(b1-2)Man(a1-6)]Man(b1-4)GlcNAc(b1-4)GlcNAc
# How it was run: as §1
# [9] = target: Neu5Ac(a2-3)Gal(b1-3)GlcNAc(b1-2)Man(a1-3)[Neu5Ac(a2-3)Gal(b1-3)GlcNAc(b1-2)Man(a1-6)]Man(b1-4)GlcNAc(b1-4)GlcNAc
# How it was run: as §1
# [10] = target: Neu5Ac(a2-3)Gal(b1-3)GlcNAc(b1-3)Gal(b1-3)GlcNAc
# How it was run: as §1
# [11] = target: Neu5Ac(a2-3)Gal(b1-3)GlcNAc(b1-3)Gal(b1-4)GlcNAc
# How it was run: as §1
# [12] = target: Neu5Ac(a2-3)Gal(b1-3)GlcNAc(b1-3)GalNAc
# How it was run: as §1
# [13] = target: Neu5Ac(a2-3)Gal(b1-3)GlcNAc(b1-4)Gal(b1-4)Glc
# How it was run: as §1
# [14] = target: Neu5Ac(a2-3)Gal(b1-3)GlcNAc(b1-6)GalNAc
# How it was run: as §1
# [15] = target: Neu5Ac(a2-3)Gal(b1-3)GlcNAc6S
# How it was run: as §1
# [16] = target: Neu5Ac(a2-3)Gal(b1-3)[Fuc(a1-4)]GlcNAc
# How it was run: as §1
# [17] = target: Neu5Ac(a2-3)Gal(b1-3)[Fuc(a1-4)]GlcNAc(b1-3)Gal(b1-3)[Fuc(a1-4)]GlcNAc
# How it was run: as §1
# [18] = target: Neu5Ac(a2-3)Gal(b1-3)[Fuc(a1-4)]GlcNAc(b1-3)Gal(b1-4)[Fuc(a1-3)]GlcNAc
# How it was run: as §1
# [19] = target: Neu5Ac(a2-3)Gal(b1-3)[GlcNAc(b1-6)]GalNAc
# How it was run: as §1
# [20] = target: Neu5Ac(a2-3)Gal(b1-3)[Neu5Ac(a2-6)]GalNAc
# How it was run: as §1
# [21] = target: Neu5Ac(a2-3)Gal(b1-3)[Neu5Ac(a2-6)]GlcNAc(b1-3)[Fuc(a1-3)[Gal(b1-4)]GlcNAc(b1-6)]Gal(b1-4)Glc
# How it was run: as §1
# [22] = target: Neu5Ac(a2-3)Gal(b1-3)]Neu5Ac(a2-3)Gal(b1-4)]GlcNAc
# How it was run: as §1
# Neu5Ac(a2-3)Gal(b1-4)Glc = target: Neu5Ac(a2-3)Gal(b1-4)Glc
# How it was run: as §1
# [23] = target: Neu5Ac(a2-3)Gal(b1-4)GlcNAc
# How it was run: as §1
# [24] = target: Neu5Ac(a2-3)Gal(b1-4)GlcNAc(b1-2)Man
# How it was run: as §1
# [25] = target: Neu5Ac(a2-3)Gal(b1-4)GlcNAc(b1-2)Man(a1-3)[GlcNAc(b1-4)][Neu5Ac(a2-3)Gal(b1-4)GlcNAc(b1-2)Man(a1-6)]Man(b1-4)GlcNAc(b1-4)GlcNAc
# How it was run: as §1
# [26] = target: Neu5Ac(a2-3)Gal(b1-4)GlcNAc(b1-2)Man(a1-3)[Neu5Ac(a2-3)Gal(b1-4)GlcNAc(b1-2)Man(a1-6)]Man(b1-4)GlcNAc(b1-4)GlcNAc
# How it was run: as §1
# [27] = target: Neu5Ac(a2-3)Gal(b1-4)GlcNAc(b1-2)Man(a1-3)[Neu5Ac(a2-3)Gal(b1-4)GlcNAc(b1-2)Man(a1-6)]Man(b1-4)GlcNAc(b1-4)[Fuc(a1-6)]GlcNAc
# How it was run: as §1
# [28] = target: Neu5Ac(a2-3)Gal(b1-4)GlcNAc(b1-2)Man(a1-3)[Neu5Ac(a2-6)Gal(b1-4)GlcNAc(b1-2)Man(a1-6)]Man(b1-4)GlcNAc(b1-4)GlcNAc
# How it was run: as §1
# [29] = target: Neu5Ac(a2-3)Gal(b1-4)GlcNAc(b1-2)[Neu5Ac(a2-3)Gal(b1-4)GlcNAc(b1-4)]Man(a1-3)[GlcNAc(b1-4)][Neu5Ac(a2-3)Gal(b1-4)GlcNAc(b1-2)[Neu5Ac(a2-3)Gal(b1-4)GlcNAc(b1-6)]Man(a1-6)]Man(b1-4)GlcNAc(b1-4)GlcNAc
# How it was run: as §1
# [30] = target: Neu5Ac(a2-3)Gal(b1-4)GlcNAc(b1-2)[Neu5Ac(a2-3)Gal(b1-4)GlcNAc(b1-4)]Man(a1-3)[GlcNAc(b1-4)][Neu5Ac(a2-3)Gal(b1-4)GlcNAc(b1-4)Man(a1-6)]Man(b1-4)GlcNAc(b1-4)GlcNAc
# How it was run: as §1
# [31] = target: Neu5Ac(a2-3)Gal(b1-4)GlcNAc(b1-2)[Neu5Ac(a2-3)Gal(b1-4)GlcNAc(b1-6)]Man(a1-6)[Neu5Ac(a2-3)Gal(b1-4)GlcNAc(b1-2)Man(a1-3)]Man(b1-4)GlcNAc(b1-4)GlcNAc
# How it was run: as §1
# [32] = target: Neu5Ac(a2-3)Gal(b1-4)GlcNAc(b1-2)[Neu5Ac(a2-3)Gal(b1-4)GlcNAc(b1-6)]Man(a1-6)[Neu5Ac(a2-3)Gal(b1-4)GlcNAc(b1-2)Man(a1-3)][GlcNAc(b1-4)]Man(b1-4)GlcNAc(b1-4)GlcNAc
# How it was run: as §1
# [33] = target: Neu5Ac(a2-3)Gal(b1-4)GlcNAc(b1-3)Gal
# How it was run: as §1
# [34] = target: Neu5Ac(a2-3)Gal(b1-4)GlcNAc(b1-3)Gal(b1-3)GlcNAc
# How it was run: as §1
# [35] = target: Neu5Ac(a2-3)Gal(b1-4)GlcNAc(b1-3)Gal(b1-4)GlcNAc
# How it was run: as §1
# [36] = target: Neu5Ac(a2-3)Gal(b1-4)GlcNAc(b1-3)Gal(b1-4)GlcNAc(b1-2)Man(a1-3)[Neu5Ac(a2-3)Gal(b1-4)GlcNAc(b1-3)Gal(b1-4)GlcNAc(b1-2)Man(a1-6)]Man(b1-4)GlcNAc(b1-4)GlcNAc
# How it was run: as §1
# [37] = target: Neu5Ac(a2-3)Gal(b1-4)GlcNAc(b1-3)Gal(b1-4)GlcNAc(b1-3)Gal(b1-4)GlcNAc
# How it was run: as §1
# [38] = target: Neu5Ac(a2-3)Gal(b1-4)GlcNAc(b1-3)Gal(b1-4)GlcNAc(b1-3)Gal(b1-4)GlcNAc(b1-2)Man(a1-3)[Neu5Ac(a2-3)Gal(b1-4)GlcNAc(b1-3)Gal(b1-4)GlcNAc(b1-3)Gal(b1-4)GlcNAc(b1-2)Man(a1-6)]GalNAc
# How it was run: as §1
# [39] = target: Neu5Ac(a2-3)Gal(b1-4)GlcNAc(b1-3)Gal(b1-4)GlcNAc(b1-3)GalNAc
# How it was run: as §1
# [40] = target: Neu5Ac(a2-3)Gal(b1-4)GlcNAc(b1-3)Gal(b1-4)GlcNAc(b1-3)[Neu5Ac(a2-3)Gal(b1-4)GlcNAc(b1-3)Gal(b1-4)GlcNAc(b1-6)]GalNAc
# How it was run: as §1
# [41] = target: Neu5Ac(a2-3)Gal(b1-4)GlcNAc(b1-3)Gal(b1-4)GlcNAc(b1-6)[Gal(b1-3)]GalNAc
# How it was run: as §1
# [42] = target: Neu5Ac(a2-3)Gal(b1-4)GlcNAc(b1-3)Gal(b1-4)[Fuc(a1-3)]GlcNAc
# How it was run: as §1
# [43] = target: Neu5Ac(a2-3)Gal(b1-4)GlcNAc(b1-3)GalNAc
# How it was run: as §1
# [44] = target: Neu5Ac(a2-3)Gal(b1-4)GlcNAc(b1-3)[Neu5Ac(a2-3)Gal(b1-4)GlcNAc(b1-6)]GalNAc
# How it was run: as §1
binder,measurement,setting,value
B1,glycan array binding signal (z-score),[1],-0.446
same,glycan array binding signal (z-score),[2],-0.375
same,glycan array binding signal (z-score),[3],-0.502
same,glycan array binding signal (z-score),[4],-0.253
same,glycan array binding signal (z-score),[5],0.48
same,glycan array binding signal (z-score),[6],-0.325
same,glycan array binding signal (z-score),[7],1.82
same,glycan array binding signal (z-score),[8],-0.454
same,glycan array binding signal (z-score),[9],1.42
same,glycan array binding signal (z-score),[10],-0.31
same,glycan array binding signal (z-score),[11],-0.496
same,glycan array binding signal (z-score),[12],-0.349
same,glycan array binding signal (z-score),[13],0.262
same,glycan array binding signal (z-score),[14],-0.541
same,glycan array binding signal (z-score),[15],0.096
same,glycan array binding signal (z-score),[16],-0.568
same,glycan array binding signal (z-score),[17],-0.302
same,glycan array binding signal (z-score),[18],-0.356
same,glycan array binding signal (z-score),[19],-0.367
same,glycan array binding signal (z-score),[20],-0.196
same,glycan array binding signal (z-score),[21],-0.491
same,glycan array binding signal (z-score),[22],-0.173
same,glycan array binding signal (z-score),Neu5Ac(a2-3)Gal(b1-4)Glc,-0.299
same,glycan array binding signal (z-score),[23],-0.328
same,glycan array binding signal (z-score),[24],3.6
same,glycan array binding signal (z-score),[25],-0.589
same,glycan array binding signal (z-score),[26],-0.485
same,glycan array binding signal (z-score),[27],-0.534
same,glycan array binding signal (z-score),[28],-0.503
same,glycan array binding signal (z-score),[29],-0.33
same,glycan array binding signal (z-score),[30],-0.407
same,glycan array binding signal (z-score),[31],-0.321
same,glycan array binding signal (z-score),[32],-0.539
same,glycan array binding signal (z-score),[33],-0.531
same,glycan array binding signal (z-score),[34],-0.515
same,glycan array binding signal (z-score),[35],-0.593
same,glycan array binding signal (z-score),[36],-0.062
same,glycan array binding signal (z-score),[37],-0.508
same,glycan array binding signal (z-score),[38],1.17
same,glycan array binding signal (z-score),[39],-0.253
same,glycan array binding signal (z-score),[40],-0.429
same,glycan array binding signal (z-score),[41],0.158
same,glycan array binding signal (z-score),[42],2.73
same,glycan array binding signal (z-score),[43],-0.44
same,glycan array binding signal (z-score),[44],-0.3

# From the supplement of paper PMC8728848
